Data: PubChem BioAssay AID1347073 (National Center for Advancing Translational Sciences (NCATS), 2019)
Among all 45,000 compounds or so, about 200 (0.44%) were called active. Not shown: some 7% with an inconclusive outcome. Calls follow the shape of the dose curve; as a rule, active = well fitted activation curve with a large enough effect; inconclusive = small, poorly fitted or top-dose-only effect; inactive = no such curve, though single readings can be large or run the other way. The list shows a part of the results.

experiment: qHTS of TDP-43 Inhibitors: NCGC Sytravon Library Screen; conditions: yeast TDP-43 toxicity rescue, BacTiter-Glo growth, 24 h; series mostly up to 46.1 µM; growth rescue (activation): at the top concentration; also: 0% is about no effect; nearly all actives have a fitted effect of over 55% in size
Outline: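 TDP-43-expressing yeast, pregrown in raffinose, seeded at OD600 0.02 in galactose medium with compound for 24 hr at 30 deg C. Growth read by BacTiter-Glo luminescence, so rescue of toxicity appears as activation.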

SMILES | growth rescue (activation)
O=C(Cn1c(=O)oc2ccccc21)NC(=O)NCc1ccccc1 | inactive: 19.4%
Cc1ccc(C)n1Cc1ccccc1Cl | inactive: 3.75%
O=C(c1cccs1)N1CCCC(c2nc3c(nnn3Cc3ccccc3Cl)c(=O)[nH]2)C1 (centres undefined) | inactive: -21.7%
C=CCN(C(=O)c1csnn1)C(C(=O)NCc1ccc(F)cc1)c1sccc1C (centres undefined) | inactive: 3.18%
CCOc1ccccc1/C=N/NC(=O)c1cc(C(C)C)[nH]n1 | inactive: 6.23%
COc1ccc(S(=O)(=O)N(C)c2ccc(C(=O)N3CCCCC3)cc2)cc1OC | inactive: 16%
CC(C)NC(=O)c1ccc(-c2ccc(F)c(F)c2)c2ccoc12 | inactive: 12.5%
CCc1nc2nc(C)c(NS(=O)(=O)c3ccc(F)cc3)c(=O)n2[nH]1 | inactive: 1.68%
COc1cc(S(=O)(=O)NCCCN2CCOCC2)ccc1-n1cnnn1 | inactive: 8.99%
COc1ccc(S(=O)(=O)N2CCN(C(=O)C3CCCCC3)CC2)cc1 | inactive: 13.5%
OCCN1CCN(c2ncnc3c2ncn3[C@H]2CN(Cc3ccco3)C[C@@H](CO)O2)CC1 | inactive: 0.0696%
CCN(CC)CCn1c(SCC(=O)NCCC2=CCCCC2)nc2c(sc3ccccc32)c1=O | inactive: 13.4%
CCCCOC(=O)C1=C(C)NC2(O)c3ccccc3C(=O)C12O (centres undefined) | inactive: -7.57%
COC(=O)CSc1ccc(-c2nc3ccc(C)cc3[nH]2)cn1 | inactive: 5.36%
CCOC(=O)c1c(C)[nH]c(C(=O)COC(=O)c2ccc(O)cc2)c1C | inactive: 15.6%
Cc1nn(-c2ccccc2)c(N2CCCC2)c1/C=N/NC(=O)c1cc2ccccc2cc1O | inactive: 23.4%
CCN1CCCc2cc(CN(CCN3CCOCC3)C(=S)Nc3ccc(C)cc3)ccc21 | inactive: -7.57%
CCOc1ccc(NC(=O)CC2Nc3ccccc3NC2=O)cc1 (centres undefined) | inactive: 14.8%
CCNC(=O)C1(C)CCN1Cc1cc(-c2ccccc2)n(C)n1 (centres undefined) | inactive: -4.03%
Cc1ccc(NC(=O)Cn2c(O)c(N=NC(N)=O)c3ccccc32)cc1 | inactive: 0.818%
O=[N+]([O-])c1cc(S(=O)(=O)N2CCCCC2)ccc1NCc1cccc(Cl)c1 | inactive: 8.5%
COc1cc(Cc2nccc3cc(OC)c(OC)cc23)c(S(=O)(=O)O)cc1OC | inactive: 4.59%
O=C(CSc1nnc(-c2cccc(F)c2)o1)NC1CCCC1 | inactive: 6.6%
CCC(C)NC(=O)CCc1nc2ccccc2n1-c1ccccc1 (centres undefined) | inactive: 9.83%
CCCNC(=O)c1cc(C2CCCN(C(=O)C3CC3)C2)on1 (centres undefined) | inactive: -2.85%
COc1ccc(CCN2C(=S)N(C)C(=O)C2CC(=O)Nc2ccc(OC)cc2)cc1 (centres undefined) | inactive: 18.1%
O=C(NCc1ccccc1)C(c1ccco1)N(C(=O)c1csnn1)c1ccccc1F (centres undefined) | inactive: 13.1%

SMILES | growth rescue (activation)
Cc1ccc(CN2CCNC(=O)C2CC(=O)NCC(F)(F)F)o1 (centres undefined) | inactive: 15.8%
O=C1CCC(C(=O)Nc2cccc3ccccc23)N1 (centres undefined) | inactive: 13.4%
Cc1ccc(NC(=O)C2CCCCC2C(=O)O)cc1Cl (centres undefined) | inactive: 2.01%
CCOc1ccccc1C(=O)NC(C(=O)N(C)c1c(N)n(Cc2ccccc2)c(=O)[nH]c1=O)C(C)C (centres undefined) | inactive: 23.1%
O=C(N/C(=C/c1ccccc1)C(=O)N1CCCCCC1)c1ccccc1 | inactive: -1.51%
Cn1ccsc1=NC(=O)c1ccc(CS(C)(=O)=O)cc1 | inactive: -6.07%
O=C(CNC(=O)c1ccccc1F)Nc1ccccc1C(F)(F)F | inactive: 3.93%
Cc1nc(NC(=O)c2ccc3c(c2)OCO3)ccc1Br | inactive: 14.5%
O=C1[C@@H]2Cc3c([nH]c4ccccc34)C(c3ccccc3)N2C(=O)CN1C1CCN(Cc2ccccc2)CC1 (some centres undefined) | inactive: -15.3%
O=C(COC(=O)c1cc(S(=O)(=O)N2CCOCC2)ccc1F)NC1CC1 | inactive: -9.39%
Cc1ccc(C)c(Nc2nc(N)c3ccccc3n2)c1 | inactive: -16.2%
CC(=O)N1CCN(C(=S)c2ccc(Cl)cc2)CC1 | inactive: 16.6%
C/C(N)=C(/C#N)C(=O)COC(=O)c1ccc(OCC2CCCO2)cc1 (centres undefined) | inactive: 7.44%
O=C(COc1ccc(Br)cc1)NC(=S)Nc1ccccc1N1CCOCC1 | inactive: 11.8%
C=Cn1c(C(=O)O)ccc1-c1ccc(OC)cc1 | inactive: 22.1%
O=C(Nc1ccccn1)c1cc2ccccc2cc1O | inactive: 11.5%
O=C(Nc1nccs1)c1ccc2sc([C@H]3C[C@H](O)[C@@H](CO)O3)nc2c1 | inactive: 10.8%
Fc1ccc(NC(=S)NCc2ccccn2)cc1 | inactive: 22.3%
CC(C)C1Oc2ccccc2N(CC(=O)N(C)C2CCCCC2)C1=O (centres undefined) | inactive: -8.86%
NS(=O)(=O)c1cccc(NC(=O)CSc2nnc(C3CC3)n2-c2ccccc2)c1 | inactive: 18.6%
CC(=O)c1ccc(N2CCN(C(=O)CCC(=O)Nc3ccc4nc(N5CCN(C)CC5)cc(C)c4c3)CC2)cc1 | inactive: 14.6%
CCOC(=O)c1sc(NC(=O)c2cccc(S(=O)(=O)N3c4ccccc4CC3C)c2)cc1C (centres undefined) | inactive: 12.5%
CN(CC(=O)Nc1ccc(S(=O)(=O)N2CCCC2)cc1)Cc1ccc(Cl)cc1 | inactive: 6.81%
CC(CCc1ccccc1)NC(=O)COC(=O)CC1CC2CCC1C2 (centres undefined) | inactive: 10.5%
Cn1c(SCc2ccccc2C#N)nc2ccccc2c1=O | inactive: 15%
Cc1ccc(C2=NC(=O)/C(=C/c3cc(O)c(O)c(Br)c3)S2)cc1 | inactive: 12.4%
NS(=O)(=O)c1ccc(CNC(=O)CC23CC4CC(CC(C4)C2)C3)cc1 | inactive: 33.1%
